{"source": "a collection of fitness landscapes (doi:10.1126/science.1257360)", "parents": {"B1": {"name": "PhoQ; a variant is named by its letters at X, in order, P23837 (parent)", "chain": "MKKLLRLFFPLSLRVRFLLATAAVVLVLSLAYGMVALIGYSVSFDKTTFRLLRGESNLFYTLAKWENNKLHVELPENIDKQSPTMTLIYDENGQLLWAQRDVPWLMKMIQPDWLKSNGFHEIEADVNDTSLLLSGDHSIQQQLQEVREDDDDAEMTHSVAVNVYPATSRMPKLTIVVVDTIPVELKSSYMVWSWFIYVLSANLLLVIPLLWVAAWWSLRPIEALAKEVRELEEHNRELLNPATTRELTSLVRNLNRLLKSERERYDKYRTTLTDLTHSLKTPLXXLQXXLRSLRSEKMSVSDAEPVMLEQISRISQQIGYYLHRASMRGGTLLSRELHPVAPLLDNLTSALNKVYQRKGVNISLDISPEISFVGEQNDFVEVMGNVLDNACKYCLEFVEISARQTDEHLYIVVEDDGPGIPLSKREVIFDRGQRVDTLRPGQGVGLAVAREITEQYEGKIVAGESMLGGARMEVIFGRQHSAPKDE"}}, "note": "Some of the results follow.", "data": [{"variants_of": "B1", "assay": "enrichment ratio after two sorts for PhoP signalling (ratio (wild type AVST 3.29)); higher = more functional", "conditions": "with PhoP (E. coli)", "values": [{"variant": "GYQY", "enrichment ratio": "≤ 0.25"}, {"variant": "LDII", "enrichment ratio": "≤ 0.25"}, {"variant": "NDDR", "enrichment ratio": "≤ 0.25"}, {"variant": "LIHQ", "enrichment ratio": "≤ 0.25"}, {"variant": "RVFG", "enrichment ratio": "≤ 0.25"}, {"variant": "YARI", "enrichment ratio": "≤ 0.25"}, {"variant": "KDLT", "enrichment ratio": "≤ 0.25"}, {"variant": "LLKM", "enrichment ratio": "≤ 0.25"}, {"variant": "DRAI", "enrichment ratio": 0.276}, {"variant": "FVMP", "enrichment ratio": "≤ 0.25"}, {"variant": "YFQY", "enrichment ratio": "≤ 0.25"}, {"variant": "HLWM", "enrichment ratio": "≤ 0.25"}, {"variant": "FNVM", "enrichment ratio": 4.22}, {"variant": "NETI", "enrichment ratio": "≤ 0.25"}, {"variant": "LTGW", "enrichment ratio": "≤ 0.25"}, {"variant": "IWFN", "enrichment ratio": "≤ 0.25"}, {"variant": "GYAV", "enrichment ratio": "≤ 0.25"}, {"variant": "IKNV", "enrichment ratio": "≤ 0.25"}, {"variant": "MVGK", "enrichment ratio": "≤ 0.25"}, {"variant": "TKPP", "enrichment ratio": "≤ 0.25"}, {"variant": "QKCH", "enrichment ratio": "≤ 0.25"}, {"variant": "IEWS", "enrichment ratio": "≤ 0.25"}, {"variant": "GGKV", "enrichment ratio": "≤ 0.25"}, {"variant": "HRLC", "enrichment ratio": "≤ 0.25"}, {"variant": "KVQD", "enrichment ratio": "≤ 0.25"}, {"variant": "ECGG", "enrichment ratio": "≤ 0.25"}, {"variant": "NFEL", "enrichment ratio": "≤ 0.25"}, {"variant": "HNHP", "enrichment ratio": "≤ 0.25"}, {"variant": "SLQH", "enrichment ratio": 2.31}, {"variant": "KQIA", "enrichment ratio": "≤ 0.25"}, {"variant": "NDKE", "enrichment ratio": "≤ 0.25"}, {"variant": "MSYY", "enrichment ratio": 4.19}, {"variant": "VSSM", "enrichment ratio": 4.97}, {"variant": "VHMR", "enrichment ratio": "≤ 0.25"}, {"variant": "WMKF", "enrichment ratio": "≤ 0.25"}, {"variant": "VGTK", "enrichment ratio": "≤ 0.25"}, {"variant": "FVPR", "enrichment ratio": "≤ 0.25"}, {"variant": "STPH", "enrichment ratio": "≤ 0.25"}, {"variant": "YLMP", "enrichment ratio": "≤ 0.25"}, {"variant": "NCIF", "enrichment ratio": "≤ 0.25"}, {"variant": "KGTY", "enrichment ratio": "≤ 0.25"}, {"variant": "TLQS", "enrichment ratio": 1.85}, {"variant": "WELG", "enrichment ratio": 1.25}, {"variant": "SDHY", "enrichment ratio": "≤ 0.25"}, {"variant": "EAGF", "enrichment ratio": "≤ 0.25"}, {"variant": "GDLE", "enrichment ratio": "≤ 0.25"}, {"variant": "EMSD", "enrichment ratio": "≤ 0.25"}, {"variant": "NVRA", "enrichment ratio": "≤ 0.25"}, {"variant": "SDHP", "enrichment ratio": "≤ 0.25"}, {"variant": "SNKM", "enrichment ratio": "≤ 0.25"}, {"variant": "AFFR", "enrichment ratio": "≤ 0.25"}, {"variant": "HVMS", "enrichment ratio": "≤ 0.25"}, {"variant": "LQIY", "enrichment ratio": "≤ 0.25"}, {"variant": "KQGF", "enrichment ratio": "≤ 0.25"}, {"variant": "NDCY", "enrichment ratio": "≤ 0.25"}, {"variant": "QRHP", "enrichment ratio": "≤ 0.25"}, {"variant": "FMDD", "enrichment ratio": "≤ 0.25"}, {"variant": "RMKV", "enrichment ratio": "≤ 0.25"}, {"variant": "QMHC", "enrichment ratio": "≤ 0.25"}, {"variant": "IHWR", "enrichment ratio": "≤ 0.25"}, {"variant": "PNHL", "enrichment ratio": "≤ 0.25"}, {"variant": "MLFP", "enrichment ratio": "≤ 0.25"}, {"variant": "YDDT", "enrichment ratio": "≤ 0.25"}, {"variant": "EFPK", "enrichment ratio": "≤ 0.25"}, {"variant": "GQFE", "enrichment ratio": "≤ 0.25"}, {"variant": "HLAF", "enrichment ratio": "≤ 0.25"}, {"variant": "IQEI", "enrichment ratio": "≤ 0.25"}, {"variant": "LQFE", "enrichment ratio": "≤ 0.25"}, {"variant": "WLRT", "enrichment ratio": "≤ 0.25"}, {"variant": "NFDE", "enrichment ratio": "≤ 0.25"}, {"variant": "LTLE", "enrichment ratio": "≤ 0.25"}, {"variant": "ELVF", "enrichment ratio": "≤ 0.25"}, {"variant": "TGSA", "enrichment ratio": 6.87}, {"variant": "APFY", "enrichment ratio": "≤ 0.25"}, {"variant": "NWTL", "enrichment ratio": "≤ 0.25"}, {"variant": "YSKF", "enrichment ratio": "≤ 0.25"}, {"variant": "TLNM", "enrichment ratio": 1.47}, {"variant": "VHCQ", "enrichment ratio": "≤ 0.25"}, {"variant": "GGGP", "enrichment ratio": "≤ 0.25"}, {"variant": "NYHK", "enrichment ratio": "≤ 0.25"}, {"variant": "MKSY", "enrichment ratio": "≤ 0.25"}, {"variant": "WTCI", "enrichment ratio": "≤ 0.25"}, {"variant": "RPKM", "enrichment ratio": "≤ 0.25"}, {"variant": "VPKW", "enrichment ratio": "≤ 0.25"}, {"variant": "NCSL", "enrichment ratio": "≤ 0.25"}, {"variant": "TPAN", "enrichment ratio": "≤ 0.25"}, {"variant": "MANG", "enrichment ratio": "≤ 0.25"}, {"variant": "DHPT", "enrichment ratio": "≤ 0.25"}, {"variant": "ADLD", "enrichment ratio": "≤ 0.25"}, {"variant": "RGVI", "enrichment ratio": "≤ 0.25"}, {"variant": "AWKI", "enrichment ratio": "≤ 0.25"}, {"variant": "IGER", "enrichment ratio": "≤ 0.25"}, {"variant": "VTGD", "enrichment ratio": "≤ 0.25"}, {"variant": "NWGK", "enrichment ratio": "≤ 0.25"}, {"variant": "WSKM", "enrichment ratio": "≤ 0.25"}, {"variant": "LQAS", "enrichment ratio": "≤ 0.25"}, {"variant": "KHTP", "enrichment ratio": "≤ 0.25"}, {"variant": "DYWD", "enrichment ratio": "≤ 0.25"}, {"variant": "QKFM", "enrichment ratio": "≤ 0.25"}, {"variant": "RTYQ", "enrichment ratio": "≤ 0.25"}, {"variant": "PIRW", "enrichment ratio": "≤ 0.25"}, {"variant": "LYKH", "enrichment ratio": "≤ 0.25"}, {"variant": "RSCA", "enrichment ratio": "≤ 0.25"}, {"variant": "DVIR", "enrichment ratio": "≤ 0.25"}, {"variant": "EYSP", "enrichment ratio": "≤ 0.25"}, {"variant": "RVCK", "enrichment ratio": "≤ 0.25"}, {"variant": "DRDS", "enrichment ratio": "≤ 0.25"}, {"variant": "KLAF", "enrichment ratio": "≤ 0.25"}, {"variant": "AGWQ", "enrichment ratio": "≤ 0.25"}, {"variant": "QEDK", "enrichment ratio": "≤ 0.25"}, {"variant": "TWIK", "enrichment ratio": "≤ 0.25"}, {"variant": "LADN", "enrichment ratio": "≤ 0.25"}, {"variant": "LHHY", "enrichment ratio": "≤ 0.25"}, {"variant": "WFLD", "enrichment ratio": "≤ 0.25"}, {"variant": "TEIF", "enrichment ratio": 9.64}, {"variant": "SDMK", "enrichment ratio": "≤ 0.25"}, {"variant": "TTLV", "enrichment ratio": 17.9}, {"variant": "KDYP", "enrichment ratio": "≤ 0.25"}, {"variant": "TIPQ", "enrichment ratio": "≤ 0.25"}, {"variant": "ARCP", "enrichment ratio": "≤ 0.25"}, {"variant": "YYSF", "enrichment ratio": "≤ 0.25"}, {"variant": "RELC", "enrichment ratio": "≤ 0.25"}, {"variant": "NDRR", "enrichment ratio": "≤ 0.25"}, {"variant": "SLGW", "enrichment ratio": 3.15}, {"variant": "IIKP", "enrichment ratio": "≤ 0.25"}, {"variant": "KNGA", "enrichment ratio": "≤ 0.25"}, {"variant": "MFPL", "enrichment ratio": "≤ 0.25"}, {"variant": "KELP", "enrichment ratio": "≤ 0.25"}, {"variant": "NSTG", "enrichment ratio": "≤ 0.25"}, {"variant": "VEVR", "enrichment ratio": "≤ 0.25"}, {"variant": "NYVN", "enrichment ratio": "≤ 0.25"}, {"variant": "MGGD", "enrichment ratio": "≤ 0.25"}, {"variant": "RTRQ", "enrichment ratio": "≤ 0.25"}, {"variant": "VLTN", "enrichment ratio": "≤ 0.25"}, {"variant": "FRAK", "enrichment ratio": "≤ 0.25"}, {"variant": "TWHW", "enrichment ratio": "≤ 0.25"}, {"variant": "PPPC", "enrichment ratio": "≤ 0.25"}, {"variant": "LNYE", "enrichment ratio": "≤ 0.25"}, {"variant": "FSPD", "enrichment ratio": "≤ 0.25"}, {"variant": "WRHF", "enrichment ratio": "≤ 0.25"}, {"variant": "SPYG", "enrichment ratio": "≤ 0.25"}, {"variant": "YMIM", "enrichment ratio": "≤ 0.25"}, {"variant": "RCEV", "enrichment ratio": "≤ 0.25"}, {"variant": "DISV", "enrichment ratio": "≤ 0.25"}, {"variant": "SDYF", "enrichment ratio": "≤ 0.25"}, {"variant": "SMRR", "enrichment ratio": "≤ 0.25"}, {"variant": "VHLV", "enrichment ratio": "≤ 0.25"}, {"variant": "YCFR", "enrichment ratio": "≤ 0.25"}, {"variant": "MVYC", "enrichment ratio": "≤ 0.25"}, {"variant": "FEDM", "enrichment ratio": "≤ 0.25"}, {"variant": "RLFW", "enrichment ratio": "≤ 0.25"}, {"variant": "LCGG", "enrichment ratio": "≤ 0.25"}, {"variant": "LDTT", "enrichment ratio": "≤ 0.25"}, {"variant": "YPWL", "enrichment ratio": "≤ 0.25"}, {"variant": "IDVP", "enrichment ratio": "≤ 0.25"}, {"variant": "LWTP", "enrichment ratio": "≤ 0.25"}, {"variant": "YNPP", "enrichment ratio": "≤ 0.25"}, {"variant": "VANT", "enrichment ratio": "≤ 0.25"}, {"variant": "VWKP", "enrichment ratio": "≤ 0.25"}, {"variant": "SRAV", "enrichment ratio": "≤ 0.25"}, {"variant": "EMHL", "enrichment ratio": "≤ 0.25"}, {"variant": "IESS", "enrichment ratio": "≤ 0.25"}, {"variant": "PDTF", "enrichment ratio": "≤ 0.25"}, {"variant": "DYQY", "enrichment ratio": "≤ 0.25"}, {"variant": "IDCA", "enrichment ratio": "≤ 0.25"}, {"variant": "RREL", "enrichment ratio": "≤ 0.25"}, {"variant": "YAGP", "enrichment ratio": "≤ 0.25"}, {"variant": "QHKD", "enrichment ratio": "≤ 0.25"}, {"variant": "RMHC", "enrichment ratio": "≤ 0.25"}, {"variant": "RWAN", "enrichment ratio": "≤ 0.25"}, {"variant": "YNTQ", "enrichment ratio": "≤ 0.25"}, {"variant": "LHNC", "enrichment ratio": "≤ 0.25"}, {"variant": "IKQD", "enrichment ratio": "≤ 0.25"}, {"variant": "DYFD", "enrichment ratio": "≤ 0.25"}, {"variant": "YFTD", "enrichment ratio": "≤ 0.25"}, {"variant": "NTEI", "enrichment ratio": "≤ 0.25"}, {"variant": "ICWP", "enrichment ratio": "≤ 0.25"}, {"variant": "GECP", "enrichment ratio": "≤ 0.25"}, {"variant": "DTMG", "enrichment ratio": "≤ 0.25"}, {"variant": "IACI", "enrichment ratio": "≤ 0.25"}, {"variant": "SRPD", "enrichment ratio": "≤ 0.25"}, {"variant": "NLCT", "enrichment ratio": "≤ 0.25"}, {"variant": "TQPG", "enrichment ratio": 1.04}, {"variant": "HSNQ", "enrichment ratio": "≤ 0.25"}, {"variant": "NCIG", "enrichment ratio": "≤ 0.25"}, {"variant": "TIFF", "enrichment ratio": "≤ 0.25"}, {"variant": "YVVS", "enrichment ratio": "≤ 0.25"}, {"variant": "PSMC", "enrichment ratio": "≤ 0.25"}, {"variant": "HALG", "enrichment ratio": 0.815}, {"variant": "NGCR", "enrichment ratio": "≤ 0.25"}, {"variant": "NKKN", "enrichment ratio": "≤ 0.25"}, {"variant": "VEDF", "enrichment ratio": "≤ 0.25"}, {"variant": "MTDD", "enrichment ratio": "≤ 0.25"}, {"variant": "WLKC", "enrichment ratio": "≤ 0.25"}, {"variant": "WNLT", "enrichment ratio": "≤ 0.25"}]}]}
